The target in assay [1] is FLAG-tagged neurofibromin ABC domain expressed in NF1-null HEK293T cells (human) (UniProt P21359). Briefly: co-IP; HA- and FLAG-tagged NF1 domains co-expressed in NF1-null HEK293T cells; anti-FLAG M2 affinity gel, blots with anti-HA and anti-FLAG.
The target of assay [2] is HA- or FLAG-tagged neurofibromin CDEF domain expressed in NF1-null HEK293 cells (human) (UniProt P21359). Described as above.
In assay [3] the target is HA- or FLAG-tagged neurofibromin DEF domain expressed in NF1-null HEK293 cells (human) (UniProt P21359). The description is as above.
For assay [4], the target named is HA- or FLAG-tagged neurofibromin ABCD domain expressed in NF1-null HEK293T cells (human) (UniProt P21359). Described as above.
Assay [5] deals with full-length neurofibromin, FLAG- or V5-tagged, expressed in HEK293T cells (human) (UniProt P21359). The experiment in a line: co-IP; FLAG- and V5-tagged full-length NF1 co-transfected into HEK293T cells; anti-FLAG M2 affinity gel, blots with anti-FLAG and anti-V5.
Assay [6] addresses neurofibromin ABC fragment (2–1540) (human) (UniProt P21359). Briefly: AUC; sedimentation velocity of ABC or DEF alone at several concentrations, 50,000 rpm, 20 °C, 300 mM NaCl, 20 mM Tris-HCl pH 8.5, 5 mM TCEP; both purified.
Assay [7] shares this target. Briefly: SEC-MALS; single purified proteins; Superose-6 Increase or Superdex S-200 10/300 GL, Wyatt Heleos and Optilab T-Rex; BSA as standard; both purified. In general terms: In gel filtration, larger molecules generally elute earlier.
Assay [8] has the same target. Briefly: negative-stain EM; proteins diluted to 0.01 mg/ml in 20 mM Tris-Cl pH 8.0, 300 mM NaCl, 5 mM TCEP, stained with uranyl formate; 2D class averages and 3D reconstruction; both purified.
The target of assay [9] is T1, neurofibromin EF fragment (1821–2818) (human) (UniProt P21359).
T1 sequence: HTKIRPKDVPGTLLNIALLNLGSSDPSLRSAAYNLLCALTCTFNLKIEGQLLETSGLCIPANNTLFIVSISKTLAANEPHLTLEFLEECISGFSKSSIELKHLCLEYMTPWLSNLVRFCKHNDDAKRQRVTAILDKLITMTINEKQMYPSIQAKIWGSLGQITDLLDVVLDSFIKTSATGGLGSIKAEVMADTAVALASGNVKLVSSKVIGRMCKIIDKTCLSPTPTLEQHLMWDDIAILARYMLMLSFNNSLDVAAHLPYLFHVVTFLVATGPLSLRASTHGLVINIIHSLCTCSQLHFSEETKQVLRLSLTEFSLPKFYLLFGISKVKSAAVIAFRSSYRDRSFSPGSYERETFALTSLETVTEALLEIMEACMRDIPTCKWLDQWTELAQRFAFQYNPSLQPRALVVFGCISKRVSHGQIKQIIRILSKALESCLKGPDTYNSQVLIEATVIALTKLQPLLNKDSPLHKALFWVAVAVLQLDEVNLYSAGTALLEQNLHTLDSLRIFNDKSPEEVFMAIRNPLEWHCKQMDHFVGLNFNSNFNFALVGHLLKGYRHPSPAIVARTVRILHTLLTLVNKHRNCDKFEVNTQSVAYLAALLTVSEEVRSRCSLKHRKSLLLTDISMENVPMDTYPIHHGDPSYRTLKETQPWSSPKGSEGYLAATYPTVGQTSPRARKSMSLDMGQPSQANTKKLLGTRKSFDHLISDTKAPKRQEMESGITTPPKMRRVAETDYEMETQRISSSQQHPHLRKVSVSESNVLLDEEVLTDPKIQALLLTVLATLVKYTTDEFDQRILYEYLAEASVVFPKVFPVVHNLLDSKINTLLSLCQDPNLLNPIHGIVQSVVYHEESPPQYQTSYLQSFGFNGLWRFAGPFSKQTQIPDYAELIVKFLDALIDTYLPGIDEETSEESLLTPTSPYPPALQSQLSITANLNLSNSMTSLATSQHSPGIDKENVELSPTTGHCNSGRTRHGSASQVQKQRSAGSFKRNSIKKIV
The experiment in a line: SEC; reconstitution from purified ABCD and EF, data not shown; both purified.

Assay [10] deals with neurofibromin DEF fragment (1541–2818) (human) (UniProt P21359). The experiment in a line: AUC; sedimentation velocity of ABC or DEF alone at several concentrations, 50,000 rpm, 20 °C, 300 mM NaCl, 20 mM Tris-HCl pH 8.5, 5 mM TCEP; both purified.
Assay [11] has the same target. Briefly: SEC-MALS; single purified proteins; Superose-6 Increase or Superdex S-200 10/300 GL, Wyatt Heleos and Optilab T-Rex; BSA as standard; both purified.

No constants are given. Whether binding was seen depends on the method and setting. For some assays here: In cells and extracts the contact can be indirect. Some entries that bind do so weakly or less than the wild type.

As to “HA- or FLAG-tagged neurofibromin ABCD domain expressed in NF1-null HEK293T cells (from UniProt P21359-2 2-1820) (domain or fragment)”, the binding result in assay [1] was “no binding”.

For the substance “HA- or FLAG-tagged neurofibromin CDEF domain expressed in NF1-null HEK293 cells (from UniProt P21359-2 861-2818) (domain or fragment)”, the binding entry in assay [1], in [2], in assay [3] and in [4] was “binds” throughout.

Consider “HA- or FLAG-tagged neurofibromin DEF domain expressed in NF1-null HEK293 cells (from UniProt P21359-2 1541-2818) (domain or fragment)”, for which the binding entry in assay [1] and in [4] was “binds” each time.

With “full-length neurofibromin, FLAG- or V5-tagged, expressed in HEK293T cells (from UniProt P21359-2 1-2818)”, the binding entry in assay [5] is “binds”.

As for “neurofibromin ABC fragment (2–1540) (from UniProt P21359-2 2-1540) (domain or fragment)”, the binding entry was “no binding (tested: 1.1 μM, 2.2 μM and 4.5 μM)” in assay [6]; “no binding” in assay [7]; “no binding (tested: 0.01 mg/ml)” in assay [8].

As for “neurofibromin ABCD fragment (2–1820) (from UniProt P21359-2 2-1820) (domain or fragment)”, the binding result in assay [9] is recorded as “binds”.

Regarding “neurofibromin DEF fragment (1541–2818) (from UniProt P21359-2 1541-2818) (domain or fragment)”, the binding entry in [10] and in assay [11] was “binds weakly” throughout.

These data come from paper PMC6983858.
